Test results taken from article PMC4336329 (PLoS ONE, 2015).
Screen size: about 310,000 compounds; about 2,200 (0.71%) showed an effect of 50% or more. The effect is printed as a negative number. This is one part of the list.

target: human ether-à-go-go-related gene (hERG) potassium channel (human, UniProt Q12809); experiment: primary screen, population patch clamp on CHO cells stably expressing hERG
Sequence (Q12809 whole entry, looked up): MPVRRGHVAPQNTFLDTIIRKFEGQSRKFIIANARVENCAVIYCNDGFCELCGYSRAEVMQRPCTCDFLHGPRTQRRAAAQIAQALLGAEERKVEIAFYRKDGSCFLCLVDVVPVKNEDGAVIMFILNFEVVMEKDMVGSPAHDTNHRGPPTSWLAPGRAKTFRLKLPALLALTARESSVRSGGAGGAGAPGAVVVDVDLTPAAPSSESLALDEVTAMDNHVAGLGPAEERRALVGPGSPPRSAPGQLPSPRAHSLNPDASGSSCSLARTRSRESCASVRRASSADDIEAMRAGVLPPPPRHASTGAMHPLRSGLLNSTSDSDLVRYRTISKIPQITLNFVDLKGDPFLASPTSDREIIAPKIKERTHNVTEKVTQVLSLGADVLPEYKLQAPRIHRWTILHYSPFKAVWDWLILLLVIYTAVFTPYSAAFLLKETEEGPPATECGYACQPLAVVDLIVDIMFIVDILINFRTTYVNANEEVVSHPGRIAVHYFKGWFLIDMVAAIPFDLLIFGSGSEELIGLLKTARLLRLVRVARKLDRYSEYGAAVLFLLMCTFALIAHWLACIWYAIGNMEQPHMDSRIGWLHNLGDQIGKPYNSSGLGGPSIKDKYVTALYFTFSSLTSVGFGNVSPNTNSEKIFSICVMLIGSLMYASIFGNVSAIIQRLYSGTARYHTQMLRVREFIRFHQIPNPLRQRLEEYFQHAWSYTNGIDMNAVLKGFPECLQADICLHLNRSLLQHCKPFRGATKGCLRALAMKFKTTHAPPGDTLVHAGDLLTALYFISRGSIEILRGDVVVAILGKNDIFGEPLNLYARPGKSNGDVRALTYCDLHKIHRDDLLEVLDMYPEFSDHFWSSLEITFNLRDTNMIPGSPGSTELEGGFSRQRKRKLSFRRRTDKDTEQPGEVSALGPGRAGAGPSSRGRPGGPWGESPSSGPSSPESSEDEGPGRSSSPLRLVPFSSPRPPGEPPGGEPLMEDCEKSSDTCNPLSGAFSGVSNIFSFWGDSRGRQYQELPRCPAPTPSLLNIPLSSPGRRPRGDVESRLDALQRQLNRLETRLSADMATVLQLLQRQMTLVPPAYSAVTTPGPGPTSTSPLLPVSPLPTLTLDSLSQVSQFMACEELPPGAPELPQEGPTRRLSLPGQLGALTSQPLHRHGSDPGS

| SMILES | hERG current change (%, negative = inhibition) at 1uM [%] |
| --- | --- |
| COc1ccccc1-c1csc(NC(=O)c2cc(-c3cccs3)nc3ccccc23)n1 | 14 |
| Cc1ccc(C(=O)N(CC(=O)NC2CCCC2)c2cccc(F)c2)s1 | 3.91 |
| CC(C)[C@@H](CO)NC(=O)c1ccc2c3n(nc2c1)-c1ccccc1CO3 | 10.1 |
| Cc1ccc(C(=O)c2cnc3cc4c(cc3c2S(=O)(=O)c2ccccc2)OCCO4)cc1 | 20.9 |
| O=C(NCCCCc1ccccc1)C1CC(c2ccc([N+](=O)[O-])cc2)=NO1 (centres unmarked) | -3.21 |
| O=C1C2=C(c3ccccc31)[N+](=O)[C@@H]1CCCC[C@@H]1N2[O-] | 12.7 |
| O=c1c2cnn(-c3ccccc3)c2ncn1Cc1ccccc1F | 20 |
| Cc1ccc(S(=O)(=O)CCC(=O)Nc2ccccc2N2CCCC2)cc1 | 3.25 |
| COc1ccc(C(=O)CSc2nnc(-c3cc4ccccc4cc3O)n2Cc2ccco2)cc1 | -16.2 |
| O=C(CCC1CCCCC1)NCCS(=O)(=O)N1CCN(c2ccc(F)cc2)CC1 | 10.6 |
| COc1ccc(NC(=O)CN(C)C(=O)CSCc2c(C)noc2C)cc1 | -1.3 |
| CCOC(=O)C1CCN(C(=O)CCc2nnc3ccc(NCc4ccco4)nn23)CC1 | 0.564 |
| CN(C)S(=O)(=O)c1cc(NC(=O)CN2CCN(c3ccccc3O)CC2)ccc1Cl | 3.48 |
| CCOC(=O)C1(CCOc2ccccc2)CCN(Cc2ccc(F)c(OC)c2)CC1 | 5.6 |
| CCc1ccc2cccc3c2c1N=CN3C | 10.3 |
| CC(=O)c1c(COC(=O)c2ccccc2)nc2ccccc2[n+]1[O-] | -6.24 |
| O=C(NCCCN1CCOCC1)/C(=C/c1cccs1)NC(=O)c1ccccc1 | -0.682 |
| CC1CN(C(=O)C(Sc2ccccc2)c2ccccc2)CC(C)O1 (centres unmarked) | 5.46 |
| CCOc1ccc(N2C(=O)CCC2=O)cc1 | 13.5 |
| O=C(CSc1nnnn1-c1ccccc1)c1ccco1 | 1.23 |
| CCOC(=O)N1CCC(NC(=O)CSCc2cnn(-c3ccccc3)c2-n2cccc2)CC1 | 1.72 |
| CSc1ccc(CN2CCN(C(=O)CC(C)C)CC2)cc1 | 9.18 |

| SMILES | hERG current change (%, negative = inhibition) at 1uM [%] |
| --- | --- |
| C=CCn1c(O)c(C(C)=NCCCN2CCOCC2)c(=O)[nH]c1=O | 10.4 |
| COc1cc(C(c2sc3nc(C)nn3c2O)N2CC(C)OC(C)C2)cc(OC)c1OC (centres unmarked) | 6.86 |
| CCN(CC)C(=O)Cn1c(=O)n(Cc2ccc(F)cc2)c(=O)c2sccc21 | 12.3 |
| CCn1ncc(Cl)c1C(=O)Nc1ccncc1 | -1.42 |
| Cc1noc(C)c1COc1ccc(C(=O)OCC(=O)N2CC3(C)CC2CC(C)(C)C3)cc1 (centres unmarked) | 9.98 |
| NC(=O)COc1ccc(/C=N\NC(=O)c2ccc(-c3ccccc3)cc2)cc1 | 12.8 |
| CSc1cccc(NC(=O)C2C3C=CC4(O3)C2C(=O)N(CCN2CCOCC2)C4C(=O)NC2CCCCC2)c1 (centres unmarked) | 15.3 |
| COc1ccc(-c2c(-c3cc(OC)cc(OC)c3)n(C)c3ccc(-c4ccc(SC)cc4)cc23)cc1 | 20.9 |
| COc1cccc(C2c3c(-c4cc(Cl)c(C)cc4O)n[nH]c3C(=O)N2Cc2cccnc2)c1 (centres unmarked) | 9.69 |
| COC(=O)c1cn(CC(=O)Nc2ccccc2C)c2ccccc12 | 17.2 |
| COc1ccc(NS(=O)(=O)c2cc(NC(=O)c3cccs3)ccc2N2CCOCC2)cc1 | 0.541 |
| Cc1nn(-c2cccc3cccnc23)c(=O)c2ccccc12 | 11.2 |
| CN(CC(=O)Nc1ccc(Cl)c(C(F)(F)F)c1)C(=O)Cc1c[nH]c2ccccc12 | 12 |
| COc1cccc(-n2nnc3c(=O)n(CC(=O)Nc4ccc(C)cc4)cnc32)c1 | 13 |
| Cc1ccc(C(C(=O)NC(C)(C)C)N(Cc2ccc3c(c2)OCO3)C(=O)c2ccc(CN3CCOCC3)o2)o1 (centres unmarked) | 7.96 |
| Cc1cc(C)n2nc(C(=O)OC(C)C(=O)c3ccccc3)nc2n1 (centres unmarked) | 17 |
| CCCCc1cc(=O)oc2cc(C)cc(OCC(=O)N3C[C@H]4C[C@@H](C3)c3cccc(=O)n3C4)c12 | -8.03 |
| COc1ccccc1C(=O)NNS(=O)(=O)c1ccc(F)cc1 | 15.4 |
| CCn1c(SCC(=O)c2cc(C)n(CC3CCCO3)c2C)nc2ccccc21 (centres unmarked) | 4.01 |
| NC(=O)CC[C@H](NC(=O)c1ccc(F)cc1)C(=O)OCC(=O)NCc1ccc(F)cc1 | 19 |
| CCC1CCCCN1CCCNC(=O)Cn1cnc2sc(C)c(S(=O)(=O)N3CC(C)CC(C)C3)c2c1=O (centres unmarked) | 8.19 |
| COc1cc(C(=O)Oc2ccccc2/C=N/NC(=O)c2ccc(C)cc2)cc(OC)c1OC | 13.4 |
